# In ChEMBL document CHEMBL4888484, “Replenishing the malaria drug discovery pipeline: Screening and hit evaluation of the MMV Hit Generation Library 1 (HGL1) against asexual blood stage Plasmodium falciparum ,using a nano luciferase reporter read-out” (2022):
# The whole screen tested about 150,000 compounds, of which about 540 (0.36%) showed an effect of 50% or more. The list shows a part of the results.
# Test system: Plasmodium falciparum
# Assay: Primary screen in NF54 nanoGlo assay, in single point, at 2uM, 72h; a lower Z score goes with more inhibition
# Type: functional, Erythrocyte
# Conditions: timepoint 72 hour
Structure (SMILES),% Inhibition [%],Z score
O=C1C[C@H](NC(=O)CN2CCCC2=O)c2ccccc2N1,-17,2.24
COCC(C)(C)NC(=O)c1cc(Br)c(C)nc1O,-6,0.85
Cc1ccc(N(CC(=O)NC2CCN(C)CC2)S(=O)(=O)c2ccccc2)cc1,0,0.02
CN(C1CCC(=O)N(Cc2ccccc2Cl)CC1)C1CCOC1 (stereo unspecified),-6,0.77
OC1=Nc2nc(N3CCOCC3)sc2[C@@H](c2ccccc2)C1,27,-3.03
O=C(CCOc1ccccc1)Nc1ccnn1C1CCCC1,-5,0.91
O=C(c1nc2cnccc2s1)N1CCN(c2cnccn2)CC1,5,-0.66
O=S(=O)(C[C@H]1CCCC1(F)F)NCc1cccs1,-11,1.62
Cc1ccc(C(=O)N[C@H]2CCCCNC2=O)o1,14,-1.85
COC(=O)[C@H](CC(C)C)NC(=O)N1CCN(C(=O)N[C@@H](CC(C)C)C(=O)OC)CC1,-2,0.28
O=C1C2CCCCC2C(=O)N1c1nccs1 (stereo unspecified),-16,2
COc1ccc(C)cc1NC(=O)CNC(=O)COc1ccc(-c2ccc(Br)cc2)cc1,-9,0.9
COCCNCCOc1ccc(C)cc1-c1cccc2c1OCC2,8,-0.98
C=CCC1(CC=C)CCCCN1C(=O)COCC(F)(F)C(F)F,5,-0.83
CC(C)(C)[C@H](NCc1noc(C2CC2)n1)c1cccs1,-2,0.29
CCn1ccnc1[C@H]1OCC[C@@H]1NS(=O)(=O)c1ccc(N(C)C)nc1,-5,0.91
CCCC[C@H]1CN(c2ccc(Cl)cc2)C(=O)CN1C(=O)c1cc(C)no1,-7,0.89
Cc1nnsc1CN(C)C[C@H](C)N1CCCC1,-16,1.54
CC1CCC(C)N1c1cccc2c1NCCC2 (stereo unspecified),-6,0.86
Cc1cc(Cl)ccc1OCC(=O)N1CC[C@@H]2OCc3cnnn3[C@@H]2C1,-15,2.84
COCC(=O)N[C@@H]1CN(C(=O)c2nc(C(C)C)oc2C)C[C@H]1c1ccnn1C,-4,0.7
O[C@H]1CCCN(Cc2cc(Cl)ccc2OCc2cccnc2)C1,-2,0.29
C=CCN1CCN(C(=O)C(CC)Oc2ccc3c(c2)C(c2ccc(F)cc2)N(C(=O)C2CCCC2)CC3)CC1 (stereo unspecified),3,-0.61
COC(=O)C1C(c2ccccc2)NC(c2ccccc2)C(C(=O)OC)S1(=O)=O (stereo unspecified),2,-0.19
CN1CCC(NCC[C@@H](Cc2ccccc2Cl)c2ccc(Cl)cc2)CC1,72,-14.93
O=S(=O)(Nc1noc(C2CC2)n1)c1ccc(CC(F)(F)F)cc1,-12,1.22
CC(N[C@@H]1Cc2ccccc2[C@H]1N)c1ccccn1 (stereo partly specified),5,-1.05

Structure (SMILES),% Inhibition [%],Z score
CC(=Cc1nnc(-c2ccc(-n3cnnn3)cc2)o1)C(C)(C)C,2,-0.3
CN(C)C(=O)[C@@H]1CN(C(=O)NCc2c[nH]nc2-c2ccc(F)cc2)CCO1,-5,0.67
COc1ccc(-n2ncc3c(NCCNC(=O)c4ccccc4Cl)nc(C)nc32)cc1,48,-4.25
Cc1cn2c(=O)c(C(=O)N3CCN(CC#N)CC3)cnc2s1,15,-1.87
COC[C@H]1CCCN1C[C@@H]1OC[C@H](NC(=O)c2cccc(F)c2)[C@H]1O,35,-3.96
CC1=NN(c2ccccc2)C(=O)[C@H]1C(=O)c1ccc(S(=O)(=O)N2CCOCC2)cc1,0,0
[O-][S+]1CCN(CCOc2cc(Cl)cc(Cl)c2)CC1,-2,0.29
CC(=O)NCCOc1ccccc1OCCNC(C)=O,5,-0.85
CC1(C(N)=O)CCN(C(=O)c2cccc(-c3ccc4ncccc4c3)c2)CC1,-5,1.04
C[C@H](NS(=O)(=O)N1CCCCC1)c1nc(C2CC2)no1,-15,2.79
Cc1ccc(O[C@H]2CCN(C(=O)c3c[nH]c4ccccc34)C2)nn1,-7,0.8
CN(C)C(=O)[C@]12CCS(=O)(=O)N(C)[C@@H]1CCN(Cc1ccc(OC(F)(F)F)cc1)C2,1,-0.15
CC1COC(c2cccc(Cl)c2)CN1Cc1cncn1C (stereo unspecified),-3,0.38
C[C@H](C#N)CN(C)C[C@]1(O)CC[C@@H](N(C)C(=O)OC(C)(C)C)CC1,-16,3.14
Cc1cc(O[C@H]2CCCN(C(=O)c3cccc(-n4cnnn4)c3)C2)nc(C)n1,9,-1.24
CC(C)Cc1cc(C(=O)N2C[C@H](C(C)C)[C@@H](N)C2)on1,-4,0.69
CCc1ccc(-c2cc(C)cnc2-n2cnnc2)cc1,-11,1.09
CCn1c2c(c(=O)n3ncc(C(=O)NCCOC)c13)CN(Cc1ccccc1)CC2,-4,0.55
CCOC(=O)N1CCC(N2CCC3(CC2)C[C@@H]3C(=O)Nc2ccccc2OC)CC1,-10,1.46
O=C(COc1ccccc1-n1cnnc1)Nc1nnc[nH]1,33,-3.75
CN(Cc1ccsc1)C(=O)C1CC(=O)N(C)C1c1cccnc1 (stereo unspecified),3,-0.29
CCc1nc(CC(=O)N2CCN(C(C)=O)C3(CCOCC3)CC2)cs1,3,-0.48
CCS(=O)(=O)N1CCCc2cc(C(=O)N3CCCCCC3)ccc21,9,-1.02
N#CCCn1nc(-c2ccc(Br)cc2)cc1-n1c(C(F)(F)F)nc2ccccc21,-13,1.64
O=C(NCc1ccccc1)N1CCN(Cc2ccco2)[C@@H]2CS(=O)(=O)C[C@@H]21,-4,0.73
Cc1ncsc1CN(C)[C@@H](C(=O)O)c1ccsc1,3,-0.57
